Data on 1 protein can be found in article PMC11436953 (Nature Communications, 2024).

The data set deals with the molecule itself. In words: thioflavin T fluorescence aggregation kinetics.

B1: recombinant peptide Aβ42 (peptide)
chain: not shown
For the protein B1, the binding result was “binds”.
